The assay addresses GST-649-SNAP-IQGAP1 (GST-SNAP-IQGAP1-6His, full length, labelled with SNAP-surface 649) (human), P46940. Put plainly: single-molecule step photobleaching. The settings on record: remark: other sources report otherwise.

Data on 1 molecule can be found in publication doi:10.1101/2021.04.18.440338.

B1: GST-649-SNAP-IQGAP1 (GST-SNAP-IQGAP1-6His, full length, labelled with SNAP-surface 649) (natural protein)
chain: [letters of about 200 residues not shown]YGIQMPAFSKIGGILANELSVDEAALHAAVIAINEAIDRRIPADTFAALKNPNAMLVNLEEPLASTYQDILYQAKQDKMTNAKNRTENSERERDVYEELLTQAEIQGNINKVNTFSALANIDLALEQGDALALFRALQSPALGLRGLQQQNSDWYLKQLLSDKQQKRQSGQTDPLQKEELQSGVDAANSAAQQYQRRLAAVALINAAIQKGVAEKTVLELMNPEAQLPQVYPFAADLYQKELATLQRQSPEHNLTHPELSVAVEMLSSVALINRALESGDVNTVWKQLSSSVTGLTNIEEENCQRYLDELMKLKAQAHAENNEFITWNDIQACVDHVNLVVQEEHERILAIGLINEALDEGDAQKTLQALQIPAAKLEGVLAEVAQHYQDTLIRAKREKAQEIQDESAVLWLDEIQGGIWQSNKDTQEAQKFALGIFAINEAVESGDVGKTLSALRSPDVGLYGVIPECGETYHSDLAEAKKKKLAVGDNNSKWVKHWVKGGYYYYHNLETQEGGWDEPPNFVQNSMQLSREEIQSSISGVTAAYNREQLWLANEGLITRLQARCRGYLVRQEFRSRMNFLKKQIPAITCIQSQWRGYKQKKAYQDRLAYLRSHKDEVVKIQSLARMHQARKRYRDRLQYFRDHINDIIKIQAFIRANKARDDYKTLINAEDPPMVVVRKFVHLLDQSDQDFQEELDLMKMREEVITLIRSNQQLENDLNLMDIKIGLLVKNKITLQDVVSHSKKLTKKNKEQLSDMMMINKQKGGLKALSKEKREKLEAYQHLFYLLQTNPTYLAKLIFQMPQNKSTKFMDSVIFTLYNYASNQREEYLLLRLFKTALQEEIKSKVDQIQEIVTGNPTVIKMVVSFNRGARGQNALRQILAPVVKEIMDDKSLNIKTDPVDIYKSWVNQMESQTGEASKLPYDVTPEQALAHEEVKTRLDSSIRNMRAVTDKFLSAIVSSVDKIPYGMRFIAKVLKDSLHEKFPDAGEDELLKIIGNLLYYRYMNPAIVAPDAFDIIDLSAGGQLTTDQRRNLGSIAKMLQHAASNKMFLGDNAHLSIINEYLSQSYQKFRRFFQTACDVPELQDKFNVDEYSDLVTLTKPVIYISIGEIINTHTLLLDHQDAIAPEHNDPIHELLDDLGEVPTIESLIGESSGNLNDPNKEALAKTEVSLTLTNKFDVPGDENAEMDARTILLNTKRLIVDVIRFQPGETLTEILETPATSEQEAEHQRAMQRRAIRDAKTPDKMKKSKSVKEDSNLTLQEKKEKIQTGLKKLTELGTVDPKNKYQELINDIARDIRNQRRYRQRRKAELVKLQQTYAALNSKATFYGEQVDYYKSYIKTCLDNLASKGKVSKKPREMKGKKSKKISLKYTAARLHEKGVLLEIEDLQVNQFKNVIFEISPTEEVGDFEVKAKFMGVQMETFMLHYQDLLQLQYEGVAVMKLFDRAKVNVNLLIFLLNKKFYGK
Consider B1, for which the stoichiometry N was found to be 2.
